In PubChem BioAssay AID1159614 (National Center for Advancing Translational Sciences (NCATS), 2016):
Hit rate of the full screen: of about 45,000 compounds, about 65 (0.1%) were called active. Calls come from the whole dose curve; as a rule, active = well fitted activation curve with a large enough effect; inconclusive = small, poorly fitted or top-dose-only effect; inactive = no such curve, though single readings can be large or run the other way. Some of the results follow.

Molecular target: Galactocerebrosidase (Homo sapiens) (UniProt P54803)
Assay: A Novel Cell-Based Assay to Identify Small Molecules for B -Galactocerebrosidase; note: 0% is about no effect; nearly all actives have a fitted effect of over 65% in size
Conditions: 145M-Twi-hGALC-G270D cells (Twitcher mouse brain line with human GALC G270D), HMU-beta-Gal fluorescence, 48 h; series mostly up to 57.5 µM; activation: at the top concentration
Summary of the method: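 Brain-derived Twitcher mouse 145M-Twi cells stably expressing human GALC-G270D or wild-type GALC, treated live, then residual GALC activity read by fluorescence of HMU-b-Gal substrate (0.1 mM final) in citrate-phosphate buffer pH 5.2 with sodium taurocholate. Signal increase indicates enhancement.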

Chain of UniProt P54803 (P54803 whole entry, looked up): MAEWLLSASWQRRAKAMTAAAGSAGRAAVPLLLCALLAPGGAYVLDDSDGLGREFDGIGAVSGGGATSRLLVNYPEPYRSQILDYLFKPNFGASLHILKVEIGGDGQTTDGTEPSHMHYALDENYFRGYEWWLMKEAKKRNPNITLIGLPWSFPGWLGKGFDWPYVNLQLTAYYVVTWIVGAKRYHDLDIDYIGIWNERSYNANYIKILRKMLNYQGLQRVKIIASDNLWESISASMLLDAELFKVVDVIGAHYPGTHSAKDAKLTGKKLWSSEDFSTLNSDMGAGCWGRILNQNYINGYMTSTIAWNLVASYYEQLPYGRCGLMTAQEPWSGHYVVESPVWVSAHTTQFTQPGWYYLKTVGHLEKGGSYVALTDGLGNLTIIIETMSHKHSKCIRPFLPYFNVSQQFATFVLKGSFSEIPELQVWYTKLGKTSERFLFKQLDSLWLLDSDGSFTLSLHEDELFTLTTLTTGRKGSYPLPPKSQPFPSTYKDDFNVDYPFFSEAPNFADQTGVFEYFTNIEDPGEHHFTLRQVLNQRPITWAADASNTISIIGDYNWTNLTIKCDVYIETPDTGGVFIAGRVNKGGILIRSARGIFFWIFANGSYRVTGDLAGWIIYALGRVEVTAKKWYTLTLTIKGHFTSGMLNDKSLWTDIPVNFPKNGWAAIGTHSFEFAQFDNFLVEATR

SMILES | activation
Cc1ccccc1-c1noc(-c2cc3ccccc3oc2=O)n1 | inactive: -7.11%
COc1ccc(Br)cc1CNC(=O)CSc1cc(=O)n(C)c2ccccc12 | inactive: -17.3%
Cc1ccc(-n2ncc(C(=O)Nc3ccc4c(c3)OCCO4)c2C2CCN(C(=O)OC(C)(C)C)CC2)cc1 | inactive: 6.6%
CCCCNC(=O)c1nn(-c2ccc(C)cc2)c(=O)c2c1c1ccccc1n2C | inactive: -20.9%
O=C(O)CC(O)C(=O)O (stereo not drawn) | inactive: -19.1%
Cc1cccc(CNC(=O)c2cccc(NC(=O)N3CCSc4ncccc43)c2)c1 | inactive: -11.2%
CNc1c(NC(=O)c2cc(OC)cc(OC)c2)c(=O)oc2ccccc12 | inactive: -8.85%
CSc1nc(Nc2cccc(C)c2)c(C#N)c(-c2ccccc2)n1 | inactive: -20.4%
Cn1c(SCC(=O)N2CCCc3ccccc32)ncc(C(=O)Nc2ccc(F)cc2)c1=O | inactive: -9.59%
CCOC(=O)c1cnc2ccc(OC)cc2c1NCCc1ccc(OC)c(OC)c1 | inactive: -9.07%
CCCCN(Cc1ccccc1)S(=O)(=O)c1cc(Br)cc2c1N(C(=O)C1CC1)CC2 | inactive: -12.3%
CCOC(=O)N1CCC(NC(=O)c2ccc3c(c2)N(Cc2ccccc2)C(=O)c2ccccc2S3=O)CC1 (stereo not drawn) | inactive: -9.99%
COc1cc(NC(=O)c2ccc(-c3nc(COc4ccccc4)c(C)o3)cc2)cc(OC)c1 | inactive: -21.2%
COc1ccc2c(c1)c1c(c(=O)n(-c3ccc(C)cc3)c(=O)n1CC(=O)N1CCCC1)n2C | inactive: -15.1%
CCOc1ccc(-n2ccn3c(CC(C)CC(=O)O)nnc3c2=O)cc1 (stereo not drawn) | inactive: -5.44%
Cc1ccccc1-c1nc2cc(NC(=O)c3cccc(OCCC(C)C)c3)ccc2o1 | inactive: -22.9%
CCC12CN3CC(C)(CN(C1)C3c1ccccc1C)C2=O (stereo not drawn) | inactive: -24.2%
Cc1ccc(S(=O)(=O)c2cnc(SC(C)C(=O)Nc3ccccc3)[nH]c2=O)cc1 (stereo not drawn) | inactive: -4.47%
CCC(Cn1nnc2ccccc2c1=O)NC(=O)Nc1ccc(C)cc1 (stereo not drawn) | inactive: 3.54%
CCOc1ccc(OCC)c(NC(=O)c2cc(CN3CCOCC3)on2)c1 | inactive: -9.14%
CC(=O)C1=C(c2ccc(Cl)c(Cl)c2)N(C(C)=O)n2c(nnc2C2CCCCC2)S1 | inactive: -17.2%

SMILES | activation
O=C(CCc1nnc2n(Cc3ccccc3Cl)c(=O)c3ccccc3n12)Nc1ccc(F)cc1 | inactive: -21.6%
CCCNC(=O)CCn1nc(-c2ccccc2)c2ccccc2c1=O | inactive: -13.9%
O=C(CSc1nnc(CNC(=O)c2ccccc2F)n1-c1ccccc1)Nc1ccccc1F | inactive: -11.1%
O=C(NCCS(=O)(=O)N1CCN(c2ccccc2F)CC1)C(c1ccccc1)c1ccccc1 | inactive: -8.46%
O=C(Nc1ccccc1Cl)c1cc(S(=O)(=O)N2CCC3(CC2)OCCO3)ccc1F | inactive: -8.46%
CNCCCC1c2ccccc2C=Cc2ccccc21 | inactive: -8.34%
CCOC(=O)C1CCCN(C(=O)c2cccc(NC(=O)c3nsc4ccccc34)c2)C1 (stereo not drawn) | inactive: -16.7%
Cc1ccc(NC(=O)CCNS(=O)(=O)c2ccc(Br)s2)cc1 | inactive: -7.67%
Cc1ccc(-c2nc(NC(=O)CSc3ncnc4sc5c(c34)CCC(C)C5)ns2)cc1 (stereo not drawn) | inactive: -13.9%
CCn1cc2nc(SCc3ccccc3Cl)n(CCc3ccccc3)c(=O)c2n1 | inactive: -18.9%
CCOc1ccc(N(CC)S(=O)(=O)N2CCCC(C(=O)Nc3ccc(OC)c(OC)c3)C2)cc1 (stereo not drawn) | inactive: -12.3%
CCc1cccc(OCC(=O)Nc2ccc(S(=O)(=O)Nc3cc(C)nc(C)n3)cc2)c1 | inactive: 2.33%
COc1ccc(OC)c(CCNC(=O)c2ccc3c(c2)N(Cc2ccc(C)cc2)CCS3)c1 | inactive: -28.6%
COc1ccc(F)cc1S(=O)(=O)NCCc1c(C)[nH]c2c(Cl)cccc12 | inactive: -2.48%
COc1ccc2cc3cc(C(=O)NCc4ccc(C)cc4)oc3nc2c1 | inactive: -19.9%
Cc1cc(C)cc(NC(=O)CSc2nc3c(oc4ccccc43)c(=O)n2-c2ccccc2F)c1 | inactive: 2.8%
CCOC(=O)N1CCC(NC(=O)c2c(C)nn(-c3ccc(C)cc3)c2-n2cccc2)CC1 | inactive: -36.8%
CCCCOc1ccc(C(=O)Nc2nnc3n2CCS3)cc1 | inactive: -27.4%
CCOCCCNC(=O)C1CCN(c2nn3cc(-c4ccc(F)cc4)nc3s2)CC1 | inactive: -7.63%
Cc1ccc(-c2nnc(Nc3ccc(O)cc3)c3ccccc23)cc1S(=O)(=O)N1CCN(C)CC1 | inactive: 2.19%
COc1ccc(Nc2cc(C(=O)NCCc3ccc(C)cc3)c3ccccc3n2)c(OC)c1 | inactive: -16%

SMILES | activation
COc1cc(-c2noc(-c3ccc(NCc4ccccc4)c([N+](=O)[O-])c3)n2)cc(OC)c1OC | inactive: -7.81%
Cc1ccc(C(=O)NCCc2ccc(Cl)cc2)cc1-n1c(C)nc2cccnc21 | inactive: -10.8%
CCOc1ccc(NC(=O)CCNS(=O)(=O)c2ccc3c(c2)oc(=O)n3C)cc1 | inactive: -6.75%
CCCn1c2ccccc2c2cnn(CC(=O)NCCc3ccc(OCC)cc3)c(=O)c21 | inactive: 4.17%
CCC(C(=O)OCCOCCN(CC)CC)c1ccccc1 (stereo not drawn) | inactive: -4.35%
CCOc1ccc(-c2nn(CC(=O)NC3CCCCC3)c3c2cnc2ccc(C)cc23)cc1 | inactive: -22%
CCn1c(=O)c2cc(C(=O)N(CCN(C)C)Cc3ccccc3)sc2c2ccccc21 | inactive: 13.4%
COc1ccccc1CNC(=O)c1ccc2c(c1)N(Cc1cccc(C)c1)C(=O)c1ccccc1S2(=O)=O | inactive: -7.35%
COc1ccc(NC(=O)Cn2nnc3sc4c(c3c2=O)CCC(C)C4)c(OC)c1 (stereo not drawn) | inactive: -16.8%
Cc1ccc(C)c(Cn2c3ccccc3c3cnn(CC(=O)NCCC4=CCCCC4)c(=O)c32)c1 | inactive: -7.49%
COc1ccc(Cl)cc1NC(=O)c1sc(-n2nc(C)c(Cc3ccccc3)c2C)nc1C | inactive: -7.59%
CCc1ccc(CN(Cc2ccco2)C(=O)c2ccc(OC)cc2)cc1 | inactive: -9.17%
COCCCNC(=O)CSC1=Nc2ccccc2C2=NC(CCC(=O)NCc3ccccc3OC)C(=O)N12 (stereo not drawn) | inactive: -10.8%
COc1ccc(N2CCN(c3oc(/C=C/c4ccc(F)cc4)nc3C#N)CC2)cc1 | inactive: 3.91%
CCOc1cc(C(=O)N2CC(=O)Nc3ccc(C)cc3C2c2ccccc2)cc(OCC)c1OCC (stereo not drawn) | inactive: -4.85%
Cc1nnc(SCc2ccccc2)c2cc3sccc3n12 | inactive: -8.85%
CCc1ccc(CNC(=O)CCC(=O)N2Cc3cccc(OC)c3Oc3ncccc32)cc1 | inactive: -4.96%
COC(=O)c1cccnc1 | inactive: -9.54%
Cc1ccccc1NC(=O)CSc1nnc(C)c(=O)[nH]1 | inactive: -22.4%
CCOc1cccc(CNC(=O)c2ccc(N3CCCC3)c(NC(=O)NCc3ccc(F)cc3)c2)c1 | inactive: -8.19%
Nc1c(-c2nc(-c3cccs3)no2)nnn1-c1ccccc1Cl | inactive: -12.6%
